# Measured values from PubChem BioAssay AID1508623 (National Center for Advancing Translational Sciences (NCATS), 2021).
# About 450 (0.94%) of roughly 48,000 compounds were called active. Not shown: some 19% with an inconclusive outcome. Calls come from the whole dose curve; as a rule, active = well fitted inhibition curve with a large enough effect; inconclusive = small, poorly fitted or top-dose-only effect; inactive = no such curve, though single readings can be large or run the other way. The list shows a part of the results.
# Test: Primary qHTS for Identification of Small Molecule Inhibitors of Huntingtin Promoter Activity; note: nearly all actives have a fitted effect of over 50% in size
# Conditions: HEK293 HTT promoter firefly luciferase reporter (activity 0% = vehicle and -100% = no light), 24 h; series mostly up to 57.5 µM; activity change, negative = inhibition: at the top concentration
# How it was run: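 HEK293 Fluc reporter, 2,500 cells/well, 24 h pre-culture; cpds up to 57.5 uM final, 24 h 37 degrees C; Dual-Glo, 10 min RT; normalized vehicle = 0%, zero RLU = -100%.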
row,Compound,"activity change, negative = inhibition"
1,CCOc1ccccc1CNS(=O)(=O)c1cc2c(cc1C)NC(=O)CO2,inactive: -1.82%
2,CCn1nnc2cc(C(=O)Nc3cc(C)ccc3C)ccc21,inactive: -11.9%
3,O=C(NCc1ccc(F)cc1)C(=O)Nc1ccc2nc3n(c(=O)c2c1)CCCCC3,inactive: 0.384%
4,COc1ccc(NC(=O)CCNS(=O)(=O)c2ccc3c(c2)CCCC(=O)N3)cc1,inactive: -1.53%
5,Cc1ccc(-c2cc3ncc4c(n3n2)-c2cc(Cl)ccc2OC4)cc1,inactive: -11.7%
6,CCOc1ccc(CC(=O)NCc2ccc3c(c2)CCN3C(=O)c2ccccc2)cc1OCC,inactive: -17.9%
7,Cc1cc(C)c(NC(=O)c2oc3c(c2C)-c2[nH]ncc2CC3)c(C)c1,inactive: -5.28%
8,COc1ccc(Cl)cc1NC(=O)CSc1nc2c(oc3ccccc32)c(=O)n1Cc1ccco1,inactive: -9.7%
9,CCCCOc1ccc(C(=O)NCc2cn3cccc(C)c3n2)cc1,inactive: -10.5%
10,Cc1cccc(-c2nc3scc(CCNS(=O)(=O)c4ccc(F)c(C(F)(F)F)c4)n3n2)c1,inactive: -27.5%
11,Cc1ccc(C(=O)Nc2ccc(C(=O)O)cc2)cc1S(=O)(=O)N1CCC(C)CC1,inactive: -22.9%
12,CCCCOc1ccc(C(=O)NCCc2sc3nc(-c4ccc(OC)cc4)nn3c2C)cc1,inactive: 7.51%
13,CCOc1cc2c(cc1OCC)C(CC(=O)O)N(C(=O)Nc1ccc(Br)c(C)c1)CC2 (stereo not drawn),inactive: 7.77%
14,CCN(CC)c1nn2c(=O)c(C(=O)NCCc3ccccc3C)cnc2s1,inactive: -17.1%
15,Cc1ccc(NC(=O)/C=C/c2ccco2)cc1F,inactive: 48.3%
16,CCOc1ccc(N(C)C(=O)C2CCN(S(=O)(=O)c3c(C)noc3/C=C/c3ccc(C)cc3)CC2)cc1,inactive: -14.9%
17,Cc1c(C(=O)Nc2ccc(F)c(Cl)c2)sc2nc3n(c(=O)c12)CCC3,inactive: 38.2%
18,O=C(NCCc1ccccc1)C1CCN(c2nc3ccccc3nc2C(F)(F)F)CC1,inactive: 5.63%
19,CCCCCSc1nnc2c(n1)[nH]c1c(C)cccc12,inactive: -25.8%
20,COCCn1c(SCC(=O)c2ccc(C)cc2)nc2cc(C(=O)NC3CCCC3)ccc2c1=O,inactive: -3.16%
21,FC(F)(F)c1cc(Nc2nc3ccccc3c3nncn23)ccc1Cl,inactive: -7.53%
22,CCCNC(=O)c1cnn(-c2ccc(C)c(C)c2)c1C1CCN(C(=O)OC(C)(C)C)CC1,inactive: -8.68%
23,CCCOc1ccc(C(=O)N2CCC(c3nc4ccccc4s3)CC2)cc1,inactive: -10.2% [at 11.5 µM]
24,CCc1ccc(/C=C(/C#N)c2nc(-c3ccc(C)cc3)cs2)cc1,inactive: 1.99%

row,Compound,"activity change, negative = inhibition"
1,O=S(=O)(NCC(c1ccco1)N1CCN(c2ccccc2)CC1)c1cc(F)ccc1F (stereo not drawn),inactive: -35.7%
2,Cc1cc(C)cc(N2CCn3c2nc2c3c(=O)n(Cc3c(F)cccc3Cl)c(=O)n2C)c1,inactive: -1.85%
3,O=C(Cn1c(=O)c(CNc2ccccc2)cc2cc3c(cc21)OCCO3)Nc1ccccc1Cl,inactive: -27.2%
4,CCc1ccc2oc(-c3ccc(C)c(NC(=O)Cc4ccccc4)c3)nc2c1,inactive: -8.85%
5,CC(C)(C)OC(=O)N1CCC(c2c(C(=O)NCCN3CCOCC3)cnn2-c2cccc(Cl)c2)CC1,inactive: -5.19%
6,Cn1c(=O)c2c(nc(CN3CCN(c4ccccc4F)CC3)n2Cc2ccc(F)cc2)n(C)c1=O,inactive: -32.5%
7,O=c1c(S(=O)(=O)c2ccccc2)cn(Cc2ccccc2)c2cc(N3CCCC3)c(F)cc12,inactive: -10.5%
8,COc1ccc(OC)c(C2CC(=O)Nc3c2c(=O)[nH]c2nc4ccccc4n32)c1 (stereo not drawn),inactive: -6.63%
9,N#Cc1ccc(NC(=O)COCc2cc(-c3ccco3)on2)cc1,inactive: -7.26%
10,CCOC(=O)C1CCN(CCC(=O)Nc2ccccc2OC)CC1,inactive: -6.26%
11,Cc1cccc(Nc2nnc(-c3ccc(C)c(S(=O)(=O)N4CCN(C)CC4)c3)c3ccccc23)c1,inactive: -27.1%
12,Cc1ccc(Cl)cc1NC(=O)Cn1c(=O)n(C(C)C)c(=O)c2oc3ccccc3c21,inactive: 5.24%
13,CC(C)CCNC(=O)C(=O)Nc1c2c(nn1-c1ccc(Cl)cc1)CSC2,inactive: -6.03%
14,Cc1ccc(-n2nc(-c3ccccc3)c3cnc4cc5c(cc4c32)OCO5)cc1C,inactive: -3.23%
15,CC(=O)Nc1cccc(NC(=O)CSc2ccc(-c3sc(-c4ccccc4)nc3C)nn2)c1,inactive: 8.05%
16,O=C(O)CCc1ccc(-c2ccccc2)n1-c1ccc(C(=O)O)cc1,inactive: -16.1%
17,CCOC(=O)C(C)Sc1nc(-c2ccccc2)ccc1C#N (stereo not drawn),inactive: -12.4%
18,CCC(C)NC(=O)c1c(C)oc2nc(C)nc(N3CCOCC3)c12 (stereo not drawn),inactive: 3.07%
19,COc1ccccc1NC(=O)C1CCCN(c2ncnc3onc(-c4ccc(F)cc4)c23)C1 (stereo not drawn),inactive: -23.9%
20,Cc1ccc(NC(=O)c2ccc3snnc3c2)cc1C,inactive: 30.1%
21,COC(=O)c1ccccc1NC(=O)c1nn(-c2ccc(OC)cc2)c(=O)c2c1c1ccccc1n2C,inactive: -28.4%
22,COc1ccc(-c2cc(C(=O)NCCc3ccc(OC)c(OC)c3)c3c(-c4ccc(F)cc4)[nH]nc3n2)cc1,inactive: -27.4%
23,Cc1cc(C)n(-c2nc(C)c(C)c(=O)n2CC(=O)Nc2cccc([N+](=O)[O-])c2)n1,inactive: -18.9%
24,CN[C@H](CC(C)C)C(=O)N[C@H]1C(=O)N[C@@H](CC(N)=O)C(=O)N[C@@H]2C(=O)N[C@H]3C(=O)N[C@H](C(=O)N[C@H](C(=O)O)c4cc(O)cc(O)c4-c4cc3ccc4O)[C@H](O)c3ccc(c(Cl)c3)Oc3cc2cc(c3O[C@@H]2O[C@H](CO)[C@@H](O)[C@H](O)[C@@H]2O[C@H]2C[C@](C)(N)[C@H](O)[C@H](C)O2)Oc2ccc(cc2Cl)[C@H]1O,inactive: -4.47%

row,Compound,"activity change, negative = inhibition"
1,CCOC(=O)Cc1c(C(=O)OCC)nnc2c(-c3ccccc3)c(C)nn12,inactive: -13.9%
2,COCCNc1oc(-c2ccc(OC)cc2)nc1C#N,inactive: 43.2%
3,CCN(CC)C(=O)Cn1c(=O)n(CCc2ccccc2)c(=O)c2ccccc21,inactive: -11%
4,COc1cccc(N2CCN(c3ncnc4c3c(-c3ccccc3)cn4-c3cccc(C(F)(F)F)c3)CC2)c1,inactive: -26.2%
5,CCCNC(=O)N1[C@H](c2cccs2)[C@@H](C)C(=O)[C@@H](C)[C@@H]1c1cccs1,inactive: -18.3%
6,COc1ccc(S(=O)(=O)NCC(c2ccc(N(C)C)cc2)N2CCc3ccccc32)cc1F (stereo not drawn),inactive: -18.3%
7,Cc1cc(C)n2nc(CNS(=O)(=O)c3ccccc3)nc2n1,inactive: 5.05%
8,Cc1cccc(NC(=O)CN2C(=O)CSc3ccc(S(=O)(=O)N4CCCC4)cc32)c1C,inactive: -3.99%
9,COc1cccc(NC(=O)CSc2c3c(nc4ccccc24)CCCC3)c1,inactive: 6.96%
10,O=C(Nc1ccccc1C(F)(F)F)N1CC=C(c2c[nH]c3ccccc23)CC1,inactive: -16.9%
11,COC(=O)CC(=O)CSc1nc2cc(C(=O)NCC(C)C)ccc2c(=O)n1CCc1ccccc1,inactive: -20.6%
12,COc1ccc(-c2onc(C)c2C)cc1S(=O)(=O)N1CCN(c2cc(C)ccc2C)CC1,inactive: 3.46%
13,Cc1c(Cl)ccc2sc(N3CCN(C(=O)C4CC4)CC3)nc12,inactive: -22%
14,Cc1nn(C(=O)c2cccc([N+](=O)[O-])c2C)c(C)c1S(=O)(=O)N1CCCCCC1,inactive: -3.4%
15,Cc1cccc(NC(=O)N2CCC(CN3CCCCCC3)CC2)c1C,inactive: -11.8%
16,CC1CCN(S(=O)(=O)c2ccc3c(c2)CCN3C(=O)Nc2ccc(Br)cc2F)CC1,inactive: -0.777%
17,CCOc1ccccc1C(=O)N1CCC(c2nc3ccccc3o2)CC1,inactive: -20.3%
18,COc1ccc(OC)c(NC(=O)CC(=O)Nc2ccc3nc4n(c(=O)c3c2)CCCCC4)c1,inactive: -23.9%
19,Cc1nc(SCC(=O)Nc2ccc(C(=O)O)cc2)n[nH]1,inactive: -2.67%
20,CCc1ccccc1NC(=O)Cn1nc(N2CCN(c3ccccc3OC)CC2)ccc1=O,inactive: -4.44%
21,O=C1c2ccccc2S(=O)(=O)N1CCCCN1CCN(c2ncccn2)CC1,inactive: 8.56%
22,CN(C)CCCO[C@@H]1[C@H]2OC(C)(C)O[C@H]2O[C@@H]1C(O)CO (stereo partly drawn),inactive: 8.63%
23,Cc1ccc(C2CCN(C(=O)c3cnn(-c4ccc(C)c(C)c4)c3C3CCN(C(=O)OC(C)(C)C)CC3)C2)cc1 (stereo not drawn),inactive: 0.462%
24,Cn1c([N+](=O)[O-])cnc1COC(N)=O,inactive: 1.16%

row,Compound,"activity change, negative = inhibition"
1,Cc1cc(F)ccc1NC(=O)CCn1nc(C)c(S(=O)(=O)N2CCCCC2)c1C,inactive: -32%
2,COc1ccccc1C(=O)Nc1ccc(S(=O)(=O)Nc2ncccn2)cc1,inactive: 3.27%
3,COc1ccc(Cl)cc1NC(=O)c1cc(S(=O)(=O)N(C)Cc2ccccc2)ccc1F,inactive: -18%
4,CCOC(=O)c1cnc2c(C)cccc2c1Nc1ccc(OC(C)C)cc1,inactive: -18.9%
5,Cc1ccc(C)c(N2CCN(c3nc4ccc(C(=O)c5ccccc5)cc4n4cnnc34)CC2)c1,inactive: -13.4%
6,CCOc1ccccc1OCCNC(C)Cc1ccc(OC)c(S(N)(=O)=O)c1 (stereo not drawn),inactive: 0.831%
7,COc1ccccc1CN(Cc1c(Cl)cccc1Cl)S(=O)(=O)c1ccc(Br)cc1,inactive: -13.5%
8,Cn1c(=O)[nH]c(=O)c2c1nc(CN1CCN(c3ccccc3F)CC1)n2Cc1ccc(F)cc1,inactive: -12%
9,O=C(NCCc1ccc(Cl)cc1)c1ccc(CSCc2cccc(Cl)c2)o1,inactive: -6.59%
10,Cc1ccc(Cl)cc1NC(=O)c1oc2ccc(S(=O)(=O)N3CCCCCC3)cc2c1C,inactive: -10.4%
11,Cc1cc(C)cc(OCC(=O)N2CCC(c3nc4ccccc4s3)CC2)c1,inactive: -9.5%
12,CCc1cccc(C)c1NC(=O)CSc1nc2c(c(=O)[nH]1)CCC2,inactive: -20.6%
13,Cc1ccc2oc(=O)n(CCNC(=O)Nc3ccc(Cl)cc3)c2c1,inactive: -14.6%
14,Cc1cc(C(=O)NCc2ccccc2Cl)c2c(C)nn(-c3cccc(F)c3)c2n1,inactive: -23.6%
15,O=C(NCC(c1ccco1)S(=O)(=O)c1cccs1)c1ccc(Cl)cc1 (stereo not drawn),inactive: -4.66%
16,CCCN(C(=O)Nc1cn(CC(C)C)c(=O)c2ccccc12)c1ccc(F)cc1,inactive: -24.2%
17,CC(=O)N1CCc2c(sc3c2c(=O)n(-c2ccc(C)cc2)c(=O)n3Cc2ccccc2C)C1,inactive: -24.2%
18,CCCCNC(=O)c1ccc2c(c1)NC(=O)C(CS(=O)(=O)Cc1ccc(C)cc1)N2 (stereo not drawn),inactive: -8.76%
19,CCCCN(C)S(=O)(=O)c1ccc(C(=O)Nc2ccc(-c3nc4ccc(C)cc4s3)cc2)cc1,inactive: 57.7%
20,CC(C)C(=O)OCc1cc(=O)n2nc(C3CC3)sc2n1,inactive: 18.3%
21,Cc1cccc(C)c1NC(=O)CN1CCCCCC1,inactive: 11.2%
